# Assay results from the supplement of paper PMC8728848.
# The list shows a part of the results.
# B1: Mermaid3 (Stilbonema majum) (protein)
# chain: MGSSHHHHHHSSGLVPRGSHMAASGWLRSPQGTVVKLYRRSLSWSKADEFCKDVDGRLVVDRTADMHLFLIKNVLKEKKSRVWVGLRRTASHSRTWIWSDGTRQNEGDLDANLWLRDEPNDAAGEEECALFMYSPWEKAWGLNDYLCRGGCRNYQFICEKWIR
# Assays:
# Assay in all cases: glycan array binding signal (z-score within array); higher = stronger binding
# Conditions in all cases: glycan notation: IUPAC condensed, linker removed
# [1] = target: Gal6S(b1-4)Glc6S
# Summary of the method: (§1)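 From the Consortium for Functional Glycomics database, 3228 arrays were curated, keeping only those whose protein sequence was available. Binding is given as a within-array Z-score averaged across arrays sharing a protein sequence and across linkers. Negative Z-scores can be read as non-binding.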
# [2] = target: Gal6S(b1-4)GlcNAc
# Summary of the method: as §1
# [3] = target: Gal6S(b1-4)GlcNAc6S
# Summary of the method: as §1
# [4] = target: GalNAc(a1-3)Gal
# Summary of the method: as §1
# [5] = target: GalNAc(a1-3)GalNAc
# Summary of the method: as §1
# [6] = target: GalNAc(a1-3)GalNAc(b1-3)Gal(a1-4)Gal(b1-4)Glc
# Summary of the method: as §1
# [7] = target: GalNAc(a1-3)GalNAc(b1-3)Gal(a1-4)Gal(b1-4)GlcNAc
# Summary of the method: as §1
# [8] = target: GalNAc(b1-3)Gal
# Summary of the method: as §1
# [9] = target: GalNAc(b1-3)Gal(a1-4)Gal(b1-4)GlcNAc
# Summary of the method: as §1
# [10] = target: GalNAc(b1-3)Gal(a1-4)Gal(b1-4)GlcNAc(b1-3)Gal(b1-4)Glc
# Summary of the method: as §1
# [11] = target: GalNAc(b1-3)Gal(a1-6)Gal(b1-4)Glc
# Summary of the method: as §1
# [12] = target: GalNAc(b1-3)GalNAc
# Summary of the method: as §1
# [13] = target: GalNAc(b1-3)GlcNAc
# Summary of the method: as §1
# [14] = target: GalNAc(b1-4)Gal(b1-4)Glc
# Summary of the method: as §1
# [15] = target: GalNAc(b1-4)GlcNAc
# Summary of the method: as §1
# [16] = target: GalNAc(b1-4)GlcNAc(b1-2)Man
# Summary of the method: as §1
# [17] = target: GalNAc(b1-4)GlcNAc(b1-2)Man(a1-3)[GalNAc(b1-4)GlcNAc(b1-2)Man(a1-6)]Man(b1-4)GlcNAc(b1-4)GlcNAc
# Summary of the method: as §1
# [18] = target: GalNAc(b1-4)GlcNAc(b1-3)GalNAc(b1-4)GlcNAc
# Summary of the method: as §1
# [19] = target: GalNAc(b1-4)GlcNAc6S
# Summary of the method: as §1
# [20] = target: GalNAc(b1-6)GalNAc
# Summary of the method: as §1
# [21] = target: GalNAc3S(b1-4)GlcNAc
# Summary of the method: as §1
# [22] = target: GalNAc3S(b1-4)GlcNAc3S
# Summary of the method: as §1
# [23] = target: GalNAc3S(b1-4)[Fuc(a1-3)]GlcNAc
# Summary of the method: as §1
# [24] = target: GalNAc4S6S(b1-4)GlcNAc
# Summary of the method: as §1
# [25] = target: GalNAc6S(b1-4)GlcNAc
# Summary of the method: as §1
# [26] = target: Glc(a1-4)Glc
# Summary of the method: as §1
# [27] = target: Glc(a1-4)Glc(a1-4)Glc(a1-4)Glc
# Summary of the method: as §1
# [28] = target: Glc(a1-6)Glc(a1-6)Glc
# Summary of the method: as §1
# [29] = target: Glc(a1-6)Glc(a1-6)Glc(a1-6)Glc
# Summary of the method: as §1
# [30] = target: Glc(b1-4)Glc
# Summary of the method: as §1
# [31] = target: Glc(b1-6)Glc
# Summary of the method: as §1
# [32] = target: GlcA(b1-3)Gal
# Summary of the method: as §1
# [33] = target: GlcA(b1-3)GlcNAc
# Summary of the method: as §1
# [34] = target: GlcA(b1-6)Gal
# Summary of the method: as §1
# [35] = target: GlcA3S(b1-3)Gal(b1-4)GlcNAc(b1-2)Man
# Summary of the method: as §1
# [36] = target: GlcA3S(b1-3)Gal(b1-4)GlcNAc(b1-3)Gal(b1-4)Glc
# Summary of the method: as §1
# [37] = target: GlcNAc(a1-3)Gal(b1-4)GlcNAc
# Summary of the method: as §1
# [38] = target: GlcNAc(a1-4)Gal(b1-3)GlcNAc
# Summary of the method: as §1
# [39] = target: GlcNAc(a1-4)Gal(b1-4)GalNAc
# Summary of the method: as §1
# [40] = target: GlcNAc(a1-4)Gal(b1-4)GlcNAc
# Summary of the method: as §1
# [41] = target: GlcNAc(a1-4)Gal(b1-4)GlcNAc(b1-3)Gal(b1-4)Glc
# Summary of the method: as §1
# [42] = target: GlcNAc(a1-4)Gal(b1-4)GlcNAc(b1-3)Gal(b1-4)GlcNAc
# Summary of the method: as §1
# [43] = target: GlcNAc(a1-4)Gal(b1-4)GlcNAc(b1-3)Gal(b1-4)GlcNAc(b1-3)Gal(b1-4)GlcNAc
# Summary of the method: as §1
# [44] = target: GlcNAc(a1-4)Gal(b1-4)GlcNAc(b1-3)Gal(b1-4)[Fuc(a1-3)]GlcNAc(b1-3)Gal(b1-4)[Fuc(a1-3)]GlcNAc
# Summary of the method: as §1
# [45] = target: GlcNAc(a1-6)Gal(b1-4)GlcNAc
# Summary of the method: as §1
binder,measurement,setting,value
B1,glycan array binding signal (z-score),[1],0.727
same,glycan array binding signal (z-score),[2],-0.386
same,glycan array binding signal (z-score),[3],0.906
same,glycan array binding signal (z-score),[4],-0.587
same,glycan array binding signal (z-score),[5],-0.667
same,glycan array binding signal (z-score),[6],-0.674
same,glycan array binding signal (z-score),[7],-0.61
same,glycan array binding signal (z-score),[8],-0.727
same,glycan array binding signal (z-score),[9],0.257
same,glycan array binding signal (z-score),[10],-0.537
same,glycan array binding signal (z-score),[11],-0.404
same,glycan array binding signal (z-score),[12],-0.683
same,glycan array binding signal (z-score),[13],-0.595
same,glycan array binding signal (z-score),[14],-0.097
same,glycan array binding signal (z-score),[15],-0.212
same,glycan array binding signal (z-score),[16],-0.708
same,glycan array binding signal (z-score),[17],-0.498
same,glycan array binding signal (z-score),[18],2.33
same,glycan array binding signal (z-score),[19],3.6
same,glycan array binding signal (z-score),[20],-0.465
same,glycan array binding signal (z-score),[21],-0.079
same,glycan array binding signal (z-score),[22],-0.092
same,glycan array binding signal (z-score),[23],-0.526
same,glycan array binding signal (z-score),[24],-0.41
same,glycan array binding signal (z-score),[25],-0.209
same,glycan array binding signal (z-score),[26],0.381
same,glycan array binding signal (z-score),[27],0.486
same,glycan array binding signal (z-score),[28],-0.785
same,glycan array binding signal (z-score),[29],2.2
same,glycan array binding signal (z-score),[30],0.226
same,glycan array binding signal (z-score),[31],-0.413
same,glycan array binding signal (z-score),[32],-0.815
same,glycan array binding signal (z-score),[33],1.68
same,glycan array binding signal (z-score),[34],1.66
same,glycan array binding signal (z-score),[35],-0.389
same,glycan array binding signal (z-score),[36],-0.609
same,glycan array binding signal (z-score),[37],1.05
same,glycan array binding signal (z-score),[38],-0.713
same,glycan array binding signal (z-score),[39],-0.534
same,glycan array binding signal (z-score),[40],-0.636
same,glycan array binding signal (z-score),[41],-0.717
same,glycan array binding signal (z-score),[42],-0.696
same,glycan array binding signal (z-score),[43],-0.462
same,glycan array binding signal (z-score),[44],0.107
same,glycan array binding signal (z-score),[45],-0.827
